Data reported in the supplement of paper PMC10126150.
Sequences with one replicate were seen in a single cluster, so their values are uncertain.

System: ATP
Experiment: switch fluorescence ratio, 500 uM ATP over buffer (Cy3 cluster intensity, sum of 5 cycles each) (fold (ratio)); higher = stronger signal-on switching upon ATP binding; sequences stand for … in TCGTCGGCAGCGTCAGATGTGTATAAGAGACAGTTTTTTTTTTTTTTTTTTTTTTTTT…TC
Details: aptamer strand: ATP DNA aptamer (quencher-CACCTGGGGGAGTATTGCGGAGGAAGG + anchor), 100 nM annealed; ATP concentration: 500 uM; one replicate
Method in brief: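 Clusters carrying Cy3-labelled switching strands on a modified Illumina MiSeq flow-cell were annealed to 100 nM quencher-labelled ATP aptamer and imaged in selection buffer. They were imaged again after 15 min with 500 uM ATP at 22 °C, over five buffer/ATP cycles with NaOH stripping and re-annealing in between. For each cluster, the fluorescence ratio is the summed Cy3 intensity of the target cycles divided by that of the buffer cycles, averaged per switch-domain sequence. Clusters outside 100-1000 RFU were left out.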
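Further: ATP exposure 15 min at 22 °C before imaging.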

Sequence	switch fluorescence ratio
AAAGTCTACG	1.03
CAGGCACCAC	1.04
ATATGCCGTG	0.995
CCACATCGCA	1.68
CCATCGCAGG	3.08
CGGATGGCAC	1.02
TGGCTGTCTG	1.01
CATTTTCGTT	0.956
CCTTAATGAG	1.01
GATTTTTA	0.944
TTATAATTGC	0.975
TTCTTTTTAA	1
CAGGTAGCCA	0.974
GACCTAGATT	0.997
TGGTCAAGTC	1.01
ATGGTGCTCG	1.1
GGGTCACGGG	1.04
GTTATCAAGT	1
GAACTATTGC	1
TACTCAAAAC	1.12
GGCCCCTTGC	1.1
TGTAGTCGC	1.03
GCCGGATATC	1.03
GTTTTAGAAG	0.949
TGAATACTAC	1.16

Sequence	switch fluorescence ratio
TTGCAGGGC	1.08
GATATACCTA	1.12
GAATAAGAAG	1
CGGAATGACC	1.18
AGGCGGGAGC	0.962
TTTTACCGAA	1.06
AGTTCTAGTT	1
GCGATAGCAT	0.976
GTTGTTGATT	0.993
ACCTTGGGAC	1.02
AGGAAATCAG	0.991
GGCGGGAAAA	0.911
GCAGTCTAAT	0.99
ACCATACGTC	1.29
CCTTGTATTG	0.954
ACAAAGCCGA	0.955
CTTGAGAGAT	0.994
ACATATTCTG	0.979
TCGTGCTACG	1.03
TCGCGGTTGA	1.02
GATAACCTGG	1.05
GCAGCCAGGT	1.57
GAAGTCGCTG	1
GGGCCAGAAA	0.922
GTTCACGGAA	1.02

Sequence	switch fluorescence ratio
ACAACGTTGG	1.04
CTATGACTTC	1.01
CCGGTTGTAT	1.13
GGTGATAGCG	0.915
GAGGGGTGTT	0.982
GGTTTCAGAA	0.972
ATCCCGTCTT	1.08
GAAAGAGGCA	0.982
TTTCGCCACG	1.22
CCCTCAACAG	1.09
AAGTCTCACC	0.991
ACTTCGTTTT	1.03
GACAAGGGC	1.02
TACCGTCCAC	1.25
TCTGTGCGCT	1.13
ACATCAAGCT	1.05
ATGGACATA	0.992
GGTCACTCTG	1.02
AATCTAGAGC	0.933
AAGTTTGAGG	1.03
CCGACAACGG	1.22
ATAAAATGTA	0.955
GGCCCCTGGT	1.18
CTCGTAACGC	1.15
TAAATGGTAT	0.947

Sequence	switch fluorescence ratio
GGGCACCGCA	1.02
AAGCTGCGTC	1.02
GCGGCCTTAG	1.01
TCTTTGATAC	1.15
AGACAAGCGG	1.03
CATGGAGATA	1.02
GAACTAGTCT	1.05
AGGGGAGCGA	1.07
AAAGATGGCG	0.932
GATGT	0.982
GAGCTACAAT	1.02
GACGGTCAAG	1.01
GAATTTCG	1.02
TAAGAGGGAT	1.08
CCAAGATGTT	0.968
TATGAGTC	1.01
ATTGACAGGT	1.01
AACGCGCGGT	1.01
AGAGTCATCC	1.01
GACAGCCATA	1.04
GTGCCCTCAG	0.983
TAGGGGCGAC	1.08
TATTTACTAC	1.11
AGGCCGCATA	2.41
TTCGTCCCCG	0.998
